Data as given in PMC6919601, “Identification of Plasmodium dipeptidyl aminopeptidase allosteric inhibitors by high throughput screening” (PLoS ONE, 2019).
The whole screen tested about 110,000 compounds, of which about 230 (0.21%) showed an effect of 50% or more. The list shows a part of the results.

Each compound was assayed against DPAP1 (Plasmodium falciparum, UniProt Q8IIJ9) (assay: primary screen, percent inhibition; read by cleavage of a fluorogenic dipeptide substrate; higher = more effect of the substance).
Sequence of DPAP1 (Q8IIJ9 whole entry, looked up): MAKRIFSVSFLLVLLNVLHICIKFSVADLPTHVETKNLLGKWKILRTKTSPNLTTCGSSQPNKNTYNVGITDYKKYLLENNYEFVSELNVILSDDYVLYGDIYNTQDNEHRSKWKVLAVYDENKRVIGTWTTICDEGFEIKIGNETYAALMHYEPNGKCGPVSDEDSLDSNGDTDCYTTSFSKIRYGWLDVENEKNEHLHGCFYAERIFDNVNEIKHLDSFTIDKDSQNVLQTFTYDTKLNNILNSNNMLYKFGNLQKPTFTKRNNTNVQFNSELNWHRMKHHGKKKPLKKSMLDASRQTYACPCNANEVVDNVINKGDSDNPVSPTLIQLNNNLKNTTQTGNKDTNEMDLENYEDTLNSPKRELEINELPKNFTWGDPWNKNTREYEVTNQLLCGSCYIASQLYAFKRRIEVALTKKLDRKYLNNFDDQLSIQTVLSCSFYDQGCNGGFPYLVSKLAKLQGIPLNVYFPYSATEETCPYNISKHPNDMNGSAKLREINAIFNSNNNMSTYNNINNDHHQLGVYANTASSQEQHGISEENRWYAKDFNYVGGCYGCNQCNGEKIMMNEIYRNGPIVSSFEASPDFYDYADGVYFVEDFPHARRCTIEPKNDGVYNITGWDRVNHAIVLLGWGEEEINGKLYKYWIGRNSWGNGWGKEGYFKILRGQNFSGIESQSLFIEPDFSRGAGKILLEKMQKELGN
Set-up: species or system P. falciparum D10 trophozoite lysates; single well
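Note: 30 min substrate incubation versus DMSO and 10 µM JCP410 controls.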

Row | Compound | % Inhibition @ 10 uM
1 | Cc1ccc(CC2CC(=O)N(c3nc(C)cc(C)n3)C2=O)cc1 (centres unmarked) | 0.415%
2 | Cc1ccsc1CN(C(=O)c1ccccc1)C1CCS(=O)(=O)C1 (centres unmarked) | -2.85%
3 | CCC1CCC(N(C)C2CCN(C)CC2)CC1 (centres unmarked) | -1.21%
4 | CC(NC(=O)Cc1ccccc1)c1ccc(Cl)c(Cl)c1 (centres unmarked) | 0.00773%
5 | CN(C)c1ccc(-c2cc(-c3ccccc3)[nH]n2)cc1 | -1.91%
6 | CC[C@H](C)[C@H](NC(=O)c1cccc(CN)c1)C(=O)N[C@@H](CCc1ccccc1)CNS(=O)(=O)c1ccc2oc3ccccc3c2c1 | 10.2%
7 | COC(=O)c1cccc(-n2c(C)cc(/C=C3/NC(=O)N(Cc4ccc(F)cc4)C3=O)c2C)c1 | -3.33%
8 | COC(=O)c1ccc(C2C=C(c3ccccc3)Nc3ncnn32)cc1 (centres unmarked) | -7.18%
9 | Fc1ccc2c(c1)CN(c1ccccc1F)CO2 | -2.2%
10 | O=C(Nc1ccc(Oc2ccccc2)cc1)c1ccc2c(c1)OCO2 | -0.545%
11 | Cc1cc(-c2nnc(S)n2Cc2ccco2)n(C)n1 | 5.52%
12 | Cc1noc(/C=C/N(C)C)c1S(=O)(=O)N(C)Cc1ccc2c(c1)OCO2 | 4.61%
13 | NC(=O)C1CCCN(Cc2cc(F)ccc2F)C1 (centres unmarked) | -1.21%
14 | Cc1c(Cc2ccccc2)c(=O)oc2cc(O)ccc12 | 2.6%
15 | CCSc1sc(CC)cc1C1C2=C(O)CCCC2=NC(C)=C1C(=O)OC (centres unmarked) | -3.06%
16 | Cc1ccc(OCCCN2CCCCC2)c(C(C)(C)C)c1 | 4.26%
17 | O=C(C1CCN(S(=O)(=O)c2ccc3[nH]c4c(c3c2)CCCCC4)CC1)N1CCc2ccccc2C1 | -1.7%
18 | COc1ccccc1OCC(=O)Nc1ccc(Br)c(Cl)c1 | -2.19%
19 | CC(=O)c1cccc(NC(=O)C(C)Oc2ccc(C(C)(C)C)cc2)c1 (centres unmarked) | 3.79%
20 | CC(NC(=O)c1ccc(Br)o1)C1CC2CCC1C2 (centres unmarked) | 2.42%
21 | Sc1nnc2c3c4c(sc3n3c(S)nnc3n12)CCCCC4 | 0.0069%
22 | C=CCSc1nc(N)c(C#N)c(-c2ccccc2)c1C#N | 4.33%
23 | Fc1c(F)c(F)c2c(N3CCOCC3)c3ccccc3nc2c1F | 7.16%
24 | CCN1C(=O)N/C(=C\c2cc(C)n(-c3ccc(Br)cc3)c2C)C1=O | 2.73%
25 | C=CCOc1c(CNc2nc[nH]n2)cccc1OC | 0.324%
26 | COc1ccc(-n2cnc3ccccc32)cc1 | -4.03%

Row | Compound | % Inhibition @ 10 uM
27 | CCC(Oc1ccccc1)C(=O)Nc1cc(C)cc(C)c1 (centres unmarked) | -0.0938%
28 | Cc1cc(C)c2c(n1)SCC(=O)N2CC(=O)NCCN(C)C1CCCCC1 | 1.03%
29 | CC1=CC(=O)C=C(C)C1=NS(=O)(=O)c1ccccc1 | -0.053%
30 | CCOc1ccc(/C=C2\N=C(c3cc(Br)ccc3OC)OC2=O)cc1 | 3.26%
31 | CCN1CCCC1CNC(=O)Cn1ncc2c3ccccc3nc-2c1O (centres unmarked) | -1.71%
32 | CC1(C)CC(=O)C2=C(C1)NC(=O)CC2c1ccccc1OCc1ccccc1 (centres unmarked) | -5.88%
33 | Cc1cc(NC(=O)CN2CCN(C(=O)c3ccco3)CC2)c2ccccc2n1 | -9.29%
34 | Cc1ccc(S(=O)(=O)c2nnn(-c3ccccc3C(F)(F)F)c2N)cc1 | -3.47%
35 | Cc1ccnc2nc(NC(=O)Cc3ccccc3)nn12 | -4.91%
36 | CCCN1C(=O)c2ccc(C(=O)Nc3ccccc3C(=O)O)cc2C1=O | -2.83%
37 | O=c1[nH]c(=S)[nH]c2sc3c(c12)CCC1(CCCCC1)C3 | 5.93%
38 | CC(NC(=O)Cc1cccs1)c1ccccc1 (centres unmarked) | -5.88%
39 | COc1ccc(-c2c(-c3ccccc3)s/c(=N\C(=O)c3cccnc3)n2C)cc1 | 5.97%
40 | Cc1ccc2[nH]c(-c3ccc([N+](=O)[O-])cc3)nc2c1 | 1.13%
41 | COc1ccc(-n2c(S)nnc2CNC(=O)c2ccc(S(=O)(=O)N(C)C)cc2)cc1 | 10.9%
42 | CC(C)CC(C(=O)NCc1ccccc1)N1Cc2ccccc2C1=O (centres unmarked) | 0.0322%
43 | CCC(C)NC(=O)Cn1nc(C)n2c(cc3c(OC)cccc32)c1=O (centres unmarked) | -1.7%
44 | Cn1ncc(Br)c1C(=O)NCc1ccccc1 | 1.76%
45 | COC(=O)C1=CNC=C(C(=O)OC)C1c1cc(Br)ccc1OC | -1.46%
46 | CC(CCc1ccccc1)NC(=O)c1nnc(Cc2ccc(Cl)cc2)o1 (centres unmarked) | -2.8%
47 | Cc1ccc(C)c(OCC(=O)Nc2cccnc2Cl)c1 | -6.92%
48 | COc1ccc(Br)cc1CN1CCN(C(=O)c2ccccc2F)CC1 | 0.587%
49 | COCCN(CCOC)c1ncnc2c1cnn2C | -0.247%
50 | Cc1ccc(S(=O)(=O)Nc2cncc(C(=O)NCc3ccccc3)c2)cc1 | -0.546%
51 | CCN(Cc1ccccc1)C(=O)C(NC(=O)C1CCC(C)CC1)C(C)C (centres unmarked) | -8.18%
52 | CCC(N)C(=O)c1ccc(F)cc1 (centres unmarked) | -4.27%

Row | Compound | % Inhibition @ 10 uM
53 | Cc1ccccc1OCC(=O)Nc1ccccc1Br | -2.65%
54 | O=C(c1ccc2nc(N3CCCCC3)sc2c1)N1CCC2(CC1)OCCO2 | 2.45%
55 | Cc1c(C(=O)N(C)Cc2ccccc2)sc2ncn(CC(=O)N3CC(C)CC(C)C3)c(=O)c12 (centres unmarked) | -2.17%
56 | Cc1c(N(C(=O)c2cc(-c3ccccc3)nc3ccccc23)C(C)C)c(=O)n(-c2ccccc2)n1C | 1.8%
57 | CCN(CC)CCNC(=O)CCN1N=C(c2ccccc2)CCC1=O | -0.971%
58 | C=CCSc1ncc(Cl)c(C(=O)NCCc2ccc(S(N)(=O)=O)cc2)n1 | -2.71%
59 | CC(=O)C1=C(C)NC(=O)NC1c1ccc(Cl)cc1 (centres unmarked) | -1.5%
60 | COc1ccc(/C=C/c2ccc([N+](=O)[O-])cc2)cc1 | 1.29%
61 | CC(NC(=O)C(C)N1C(=O)c2ccccc2C1=O)c1ccccc1 (centres unmarked) | 3.47%
62 | Cc1ccc(C(=O)Nc2ccc3ccc4cccnc4c3n2)cc1 | 0.324%
63 | Nc1[nH]nc2nc(-c3ccccc3)c3c(c12)CCC3 | 3.93%
64 | CCCCNC(=O)CN1N=C(c2ccc(OC)cc2)CCC1=O | 1.41%
65 | COCc1cc(C)c2c(N)c(C(=O)c3ccccc3)sc2n1 | 0.746%
66 | Cc1ccc(S(=O)(=O)c2nc(-c3ccc(Cl)cc3)oc2NCCN2CCOCC2)cc1 | 0.389%
67 | COc1ccc(C2Nc3cc(C)ccc3N=C3CC(C)(C)CC(O)=C32)cc1 (centres unmarked) | 4.09%
68 | CC1=C(C(=O)OCCc2ccccc2)C(c2ccccc2)C2=C(O)CC(C)(C)CC2=N1 (centres unmarked) | 0.779%
69 | CCN(CC)CC#CC(C)(O)C(C)C (centres unmarked) | 0.912%
70 | COc1ccc(NC(=O)CSc2nc(N)nc(SC)c2C#N)cc1 | -0.366%
71 | Cc1cc(C)c(NS(=O)(=O)c2ccc(N)cc2)c(C)c1 | -1.38%
72 | COc1ccccc1C(=O)Nc1sc2c(c1C(N)=O)CCCCCC2 | 6.79%
73 | O=C(O)c1ccccc1C(=O)Nc1ccc(S(=O)(=O)N2CCOCC2)cc1 | 3.53%
74 | Cc1ccc(-c2cc(C(F)F)nc(N3CCN(Cc4ccccc4)CC3)n2)cc1 | 0.505%
75 | CCC(N)C1CCCCNC1=O (centres unmarked) | -2.7%
76 | COc1ccc(C2CC(=O)NC3=C2C(=O)CC(c2ccc(OC)c(OC)c2)C3)c(OC)c1 (centres unmarked) | 1.39%
77 | CC(C)N(c1c(-c2ccccc2)c(=O)c1=O)C1CCCCC1 | -4.68%
78 | CC1=C(c2ccc(C)c(C)c2)S(=O)(=O)N(Cc2ccc(C(=O)NCCN3CCCCC3)cc2)C1=O | 6.31%

Row | Compound | % Inhibition @ 10 uM
79 | CCOc1ccc(C2C3CN(CC)CC=C3C(C#N)=C(N)C2(C#N)C#N)cc1 (centres unmarked) | 4.86%
80 | CCC1(c2ccc(Cl)cc2)C(=O)c2ccccc2C1=O | -2.51%
81 | CCc1ccc(N2CC(C(=O)Nc3cccc(C)c3C)CC2=O)cc1 (centres unmarked) | -6.59%
82 | CCOc1cc(C2/C(=C(\O)OC)C(C)=Nc3nnnn32)ccc1OCc1ccccc1 (centres unmarked) | -3.14%
83 | CN1CCN(C(=O)CC23CC4CC(CC(C4)C2)C3)CC1 | 0.392%
84 | O=c1/c(=C/c2cccnc2)sc2n1CN(c1ccccc1)CN=2 | 1.57%
85 | CCOC(=O)C1CCCN(Cc2ccccc2C)C1 (centres unmarked) | -2.03%
86 | Cc1scc(CN2CCN(C3CCCCC3)CC2)c1C | 2.3%
87 | CC(NC(=O)C1CCCN(S(=O)(=O)N2CCOCC2)C1)c1ccccc1 (centres unmarked) | 7.68%
88 | CC(C)c1ccc(C2C(C(=O)c3ccc4c(c3)OCCO4)=C(O)C(=O)N2CCCn2ccnc2)cc1 (centres unmarked) | -5.1%
89 | CC(C(=O)N1CCN(Cc2ccccc2)CC1)n1ncn2cccc2c1=O (centres unmarked) | -3.78%
90 | O=C(N[C@@H](Cc1cc(I)c(O)c(I)c1)C(=O)N[C@H](/C=C/S(=O)(=O)c1ccccc1)CCc1ccccc1)c1ccc(N2CCOCC2)cc1 | 0.173%
91 | C#CC(CNC(=O)OCC)N1CCOCC1 (centres unmarked) | -5.46%
92 | CCCCNc1sc(S(C)(=O)=O)nc1S(=O)(=O)c1ccc(C)cc1 | -0.522%
93 | Cc1onc(-c2ccccc2)c1C(=O)Nc1cccc(Cl)c1Cl | -3.09%
94 | CCN1CCCC1CNCc1c(C(=O)O)n(Cc2ccccc2C)c2ccccc12 (centres unmarked) | -3.21%
95 | Cc1oc(-c2ccccc2Cl)nc1CS(=O)(=O)CC(=O)NCCCSC1CCCCC1 | -4.69%
96 | CCN1CCC(NCc2cccc(Cl)c2)CC1 | 3.48%
97 | COc1ccc(Cl)cc1NC(=O)CN(c1ccccc1C)S(=O)(=O)c1ccccc1 | 3.09%
98 | CCOC(=O)C1=C(CS(=O)(=O)c2ccc(Cl)cc2)NC(=O)NC1c1ccccc1C (centres unmarked) | 4.41%
99 | Cc1[nH]c2ccccc2c1C(=O)COc1ccccc1 | -3.62%
100 | O=Nc1c(O)[nH]c2ccc(Br)cc12 | -1.97%
101 | COc1ccc(C2C3C(=O)N(c4ccccc4)C(=O)C3ON2c2ccccc2)cc1 (centres unmarked) | -12.5%
